Source: PMC4336329 (PLoS ONE, 2015)
The campaign covered roughly 310,000 compounds. About 14,000 (4.5%) showed an effect of 50% or more. Effects have a minus sign here. This is one part of the list.

Target: human ether-à-go-go-related gene (hERG) potassium channel (human, UniProt Q12809)
Test: primary screen, population patch clamp on CHO cells stably expressing hERG
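Also: peak tail current of the secondary pulse compared with the same well before compound.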

Sequence of human ether-à-go-go-related gene (hERG) potassium channel (Q12809 whole entry, looked up): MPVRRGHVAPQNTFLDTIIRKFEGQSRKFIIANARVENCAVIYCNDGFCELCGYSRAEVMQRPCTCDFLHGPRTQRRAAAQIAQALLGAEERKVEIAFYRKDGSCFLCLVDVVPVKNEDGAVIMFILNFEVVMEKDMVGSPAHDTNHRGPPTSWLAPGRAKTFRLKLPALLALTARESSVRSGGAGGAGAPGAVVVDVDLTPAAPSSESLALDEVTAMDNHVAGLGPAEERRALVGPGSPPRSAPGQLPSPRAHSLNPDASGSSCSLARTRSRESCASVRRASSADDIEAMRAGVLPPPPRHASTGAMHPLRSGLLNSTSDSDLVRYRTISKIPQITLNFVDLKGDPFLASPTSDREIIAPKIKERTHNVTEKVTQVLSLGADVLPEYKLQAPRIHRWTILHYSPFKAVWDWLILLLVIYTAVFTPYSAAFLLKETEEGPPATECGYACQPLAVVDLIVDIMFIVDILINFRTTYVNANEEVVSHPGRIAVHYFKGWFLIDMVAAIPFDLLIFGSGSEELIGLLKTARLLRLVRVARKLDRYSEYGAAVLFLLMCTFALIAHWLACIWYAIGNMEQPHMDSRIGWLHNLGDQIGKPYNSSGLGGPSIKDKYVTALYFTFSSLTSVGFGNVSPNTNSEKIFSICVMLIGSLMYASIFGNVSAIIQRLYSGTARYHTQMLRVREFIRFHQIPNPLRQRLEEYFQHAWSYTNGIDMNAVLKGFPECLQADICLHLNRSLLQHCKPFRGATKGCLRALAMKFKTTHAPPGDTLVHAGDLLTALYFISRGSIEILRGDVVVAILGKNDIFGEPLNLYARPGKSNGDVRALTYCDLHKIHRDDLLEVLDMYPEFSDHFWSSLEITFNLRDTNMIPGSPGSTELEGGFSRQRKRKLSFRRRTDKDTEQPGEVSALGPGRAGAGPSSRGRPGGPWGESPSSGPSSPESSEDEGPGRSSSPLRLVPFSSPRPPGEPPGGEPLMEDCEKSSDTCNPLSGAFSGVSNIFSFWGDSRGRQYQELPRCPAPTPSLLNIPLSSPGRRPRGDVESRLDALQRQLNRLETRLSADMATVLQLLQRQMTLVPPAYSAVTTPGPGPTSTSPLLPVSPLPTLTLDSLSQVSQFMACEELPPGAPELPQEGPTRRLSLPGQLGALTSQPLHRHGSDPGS

Compared with `Cc1nn(-c2ccccc2)c(Cl)c1/C=N/NC(=O)c1ccccc1NS(=O)(=O)c1cccs1`, `COc1ccc(COC(=O)c2c(C)nn(-c3ccccc3)c2Cl)cc1` is higher in “hERG current change (%, negative = inhibition) at 10uM” value: -0.372% for the first, 4.32% for the second.

Going from `O=C(NCCc1cnc[nH]1)Nc1cccc(C(F)(F)F)c1` to `O=C(Nc1ccccc1)Nc1cnccn1`, the “hERG current change (%, negative = inhibition) at 10uM” value rises from -8.58% to 24.1%.

First: CCn1cc(C(=O)N[C@@H](CCSC)C(=O)NC(C)(C)CO)c(=O)c2cc3c(cc21)OCO3
Second: CCN(CC(=O)Nc1c(F)cccc1F)C(=O)CNC(=O)c1ccc2c(c1)OCO2
The “hERG current change (%, negative = inhibition) at 10uM” value of the first is higher: 20.8% for the first, -6.36% for the second.

Compared with `CCOC(=O)N1CCN(S(=O)(=O)N2CCCC(C(=O)NCCCN3CCCCC3)C2)CC1` (stereo not shown), `CS(=O)(=O)N1CCN(C(=O)NC23CC4CC(CC(C4)C2)C3)CC1` is lower in “hERG current change (%, negative = inhibition) at 10uM” value: 10% for the first, 5.59% for the second.

First: COCC(C)n1c(C)cc(C(=O)CSc2nnnn2-c2ccc(O)cc2)c1C (stereo not shown)
Second: Cn1nnnc1SCC(=O)Nc1ccccc1Cc1ccccc1
The “hERG current change (%, negative = inhibition) at 10uM” value of the first is lower: -17.7% for the first, -5.05% for the second.

Compared with `COc1ccc(NC(=O)NCc2ccncc2)cc1`, `CCOc1cccc(C(=O)Nc2ccncc2)c1` is higher in “hERG current change (%, negative = inhibition) at 10uM” value: 13.8% for the first, 14.1% for the second.

Going from `CCCCN1CC[C@H]2C=CC[C@@H](C(=O)NCCc3ccccc3)[C@H]2C1=O` to `O=C(NCCCNCc1ccccc1)c1ccc(/C=N/O)nc1`, the “hERG current change (%, negative = inhibition) at 10uM” value falls from -6.93% to -14.2%.

Going from `Cc1sc2ncn(CC(=O)NCCCC(=O)N3CCC(C(N)=O)CC3)c(=O)c2c1C` to `Cc1nn(C)cc1CNCc1c(C(=O)N2CCCCC2)nc2c(C)cccn12`, the “hERG current change (%, negative = inhibition) at 10uM” value falls from 20.4% to -2.52%.

Compared with `O=C(c1ccc2ccccc2c1)N1CCCC1`, `COc1ccccc1C(=O)C1CCCN(C(=O)c2ccc3c(c2)OCCO3)C1` (stereo not shown) is lower in “hERG current change (%, negative = inhibition) at 10uM” value: 19.2% for the first, 2% for the second.

First: COc1ccc(CN(C(=O)CN2C(=O)COc3ccccc32)C2CCCC2)c(OC)c1
Second: Cn1c(Cc2ccc3c(c2)OCO3)nnc1SCC(=O)NC1CCCC1
The “hERG current change (%, negative = inhibition) at 10uM” value of the first is lower: -13.9% for the first, 4.01% for the second.

Going from `Cc1ccccc1OCC(=O)Nc1ccc(S(=O)(=O)Nc2ccccn2)cc1` to `CCOc1ccc(NC(=O)CNC(=O)c2nn(-c3ccc(OC)cc3)c(=O)c3ccccc23)cc1`, the “hERG current change (%, negative = inhibition) at 10uM” value rises from 0.077% to 21.2%.

Going from `COc1ccccc1CNS(=O)(=O)c1c(C)[nH]c(=O)[nH]c1=O` to `Cn1c(N)c(S(=O)(=O)NCc2ccc(Cl)cc2)c(=O)n(C)c1=O`, the “hERG current change (%, negative = inhibition) at 10uM” value rises from 11.7% to 24.3%.

Compared with `Cc1ccccc1NC(=O)c1ccc(Cl)c(NC(=O)c2cccnc2)c1`, `O=C(Nc1cccnc1)c1ccc2ccccc2c1O` is higher in “hERG current change (%, negative = inhibition) at 10uM” value: -6.19% for the first, 3.64% for the second.

Going from `CSCCC(NS(=O)(=O)c1ccc(C)cc1)C(=O)N1CCN(C(c2ccccc2)c2ccccc2)CC1` (stereo not shown) to `O=C(CSc1nccn1Cc1ccccc1)NCc1ccccc1`, the “hERG current change (%, negative = inhibition) at 10uM” value falls from 12.8% to -0.489%.

Compared with `COc1ccc(N2CCc3c(C)nc(SC)nc32)cc1`, `CSc1nc(N)n2nc(-c3ccc(Cl)cc3)cc2n1` is higher in “hERG current change (%, negative = inhibition) at 10uM” value: 3.4% for the first, 5.44% for the second.

Going from `Cc1ccccc1C(=O)NNC(=S)NC(=O)c1ccccc1` to `O=C(NC1CSCC1OC(=O)c1ccccc1)c1ccccc1` (stereo not shown), the “hERG current change (%, negative = inhibition) at 10uM” value falls from 32.6% to -21.1%.

Going from `CN1CCN(c2ccc3nccnc3c2)CC1` to `Cn1c(C(=O)N2CCCC(C(=O)c3ccc(C(F)(F)F)cc3)C2)cc(=O)n(C)c1=O` (stereo not shown), the “hERG current change (%, negative = inhibition) at 10uM” value falls from 5.45% to -71.7%.

Going from `O=C1C(Cl)=C(NCc2cccnc2)C(=O)c2ccccc21` to `Cc1cn(C(=O)C(C)N2C(=O)c3ccccc3C2=O)c(C)n1` (stereo not shown), the “hERG current change (%, negative = inhibition) at 10uM” value rises from -3.77% to -1.3%.

Compared with `CNC(=O)CCSSCCC(=O)NC`, `CCOc1ccc(NC(=O)COC(=O)CCC(=O)c2cccs2)cc1` is lower in “hERG current change (%, negative = inhibition) at 10uM” value: 15.9% for the first, 5.07% for the second.

Compared with `Cc1c(N2C(=O)/C(=C/C3CC=CCC3)SC2=S)c(=O)n(-c2ccccc2)n1C` (stereo not shown), `COCCOC(=O)C1=C(C)N=c2s/c(=C\c3cccs3)c(=O)n2C1c1cccs1` (stereo not shown) is higher in “hERG current change (%, negative = inhibition) at 10uM” value: 2.86% for the first, 9.93% for the second.

Compared with `CC(/C=N/NC(=O)C(O)c1ccccc1)=C\c1ccccc1` (stereo not shown), `N#C/C(=C\C=C\c1ccccc1)C(=O)Nc1ccccc1` is higher in “hERG current change (%, negative = inhibition) at 10uM” value: -11.5% for the first, 14.6% for the second.

First: CC(CN1CCCCC1)c1ccccc1.O=C(O)C(=O)O (stereo not shown)
Second: CCOc1cc(/C=N/NC(=O)C(C)Sc2ccccc2)ccc1O (stereo not shown)
The “hERG current change (%, negative = inhibition) at 10uM” value of the first is higher: 13.1% for the first, -5.93% for the second.

Compared with `Cc1nnc(SCC(=O)N2CCOCC2)n1C`, `CN1CCc2nc(SCC(=O)OC(C)(C)C)c(C#N)cc2C1` is lower in “hERG current change (%, negative = inhibition) at 10uM” value: -1.96% for the first, -13.7% for the second.

Going from `COc1ccc(NC(=O)NC(C)c2ccncc2)cc1OC` (stereo not shown) to `CCOC(=O)c1[nH]c(C)c(C(=O)Nc2ccc(C)c(C)c2)c1C`, the “hERG current change (%, negative = inhibition) at 10uM” value rises from -0.974% to 14.6%.

Compared with `CN(C)/C=C/C(=O)c1cccc([N+](=O)[O-])c1`, `Cc1ccc2cc(/C=N/NC(=O)[C@@H]3CCCN3)c(Cl)nc2c1.Cl` is lower in “hERG current change (%, negative = inhibition) at 10uM” value: 4.2% for the first, -18.2% for the second.

Compared with `CCC(=O)NC1(C(F)(F)F)C(=O)Nc2c1c(=O)[nH]c(=O)n2Cc1ccco1` (stereo not shown), `COC(=O)c1cccnc1-n1c(=O)c2cccnc2n(Cc2cccc(C(F)(F)F)c2)c1=O` is lower in “hERG current change (%, negative = inhibition) at 10uM” value: 8.93% for the first, -20.6% for the second.

Going from `CC1=CC(C)(C)Nc2cc(C)c(C)cc21` to `CC[C@@]12C(=O)N(c3cccc(C)c3)C(=O)N1[C@H](c1ccc(OC)cc1)[C@@H]1C(=O)N(C(C)(C)C)C(=O)[C@@H]12`, the “hERG current change (%, negative = inhibition) at 10uM” value rises from -4.74% to 3.75%.

First: Cc1ccc(NC2=Nc3ccccc3CS2)cc1
Second: COn1c(=O)c(-c2cccc(Br)c2)[n+]([O-])c2ccccc21
The “hERG current change (%, negative = inhibition) at 10uM” value of the first is lower: 8.04% for the first, 12.8% for the second.

First: CCOC(=O)c1sc(CS(=O)(=O)c2ccc(Cl)cc2)nc1C
Second: CCCCNC(=S)NCc1ccc2[nH]c3c(c2c1)CCCC3
The “hERG current change (%, negative = inhibition) at 10uM” value of the first is lower: -9.81% for the first, -1.58% for the second.
